# In PubChem BioAssay AID540267 (National Center for Advancing Translational Sciences (NCATS), 2011):
# Among all 340,000 compounds or so, about 530 (0.16%) were called active. The shares of active, inactive and inconclusive entries below differ from those in the screen. No stated cut-off is given here; in the data, active means activity change below about -80%; inconclusive means between about -30% and that limit; inactive means weaker than that.
# Assay: Small Molecules that selectively kill Giardia lamblia: qHTS;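 further: parasites exposed to compound for two days anaerobically before the ATP read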
# Conditions: Giardia lamblia trophozoite viability; at 7.66 µM; active compounds read low
# Procedure, shortened: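 Killing of trophozoites was scored by loss of ATP luminescence after a 48 hrs anaerobic exposure to compounds at 37 deg C, using 100 cells per well.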
# On the % scale 0 is the no-effect control and ±100 the full control effect.
row,Structure (SMILES),activity change
1,S=c1[nH]nc(COc2ccccc2)n1/N=C/c1ccccc1Br,inactive: 23.8%
2,O=C(c1ccccc1F)N1CCC(O)(c2cccnc2)CC1,inconclusive: -32.5% [inhibitor]
3,C(=N\Nc1nc(-c2ccccn2)nc2ccccc12)/c1ccccc1,inactive: 19.1%
4,Cc1cc(C)c(C2=NOC3C4CCC(C4)C23)c(C)c1 (stereo unspecified),inconclusive: -32.3% [inhibitor]
5,CCN(C(=S)Nc1ccccc1F)C1CCCCC1,inactive: -23.7%
6,COc1ccc(-c2cc(=O)c3c(O)c(OC)c(O)cc3o2)cc1,inconclusive: -33.7% [inhibitor]
7,Cc1cc(CNC(=O)C2(C(F)(F)F)CC(CCCO)CCCO2)nn1C (stereo unspecified),inconclusive: -41.6% [inhibitor]
8,Oc1ccccc1/C=N/NC(=S)NCCc1ccccc1,inconclusive: -30.1% [inhibitor]
9,O=[N+]([O-])c1cccc(COc2ccccc2CN2CCCCC2)c1,inconclusive: -31.3% [inhibitor]
10,O=[N+]([O-])c1sccc1CS(=O)(=O)c1ccccc1,inconclusive: -59.6% [inhibitor]
11,CCCCOc1ccc(C(=O)Nc2cccc(-n3cnnn3)c2)cc1OC,inactive: -21.5%
12,COc1ccc(C(=O)OCC(=O)N(C)C2CCS(=O)(=O)C2)cc1S(=O)(=O)N(C)Cc1ccccc1 (stereo unspecified),inconclusive: -36.1% [inhibitor]
13,CC1CCCC(NC(=O)CN(C)S(=O)(=O)c2cccc3cccnc23)C1C (stereo unspecified),inactive: 4.8%
14,Cc1n(N)c2ccccc2[n+]1CC(=O)c1ccccc1,inactive: 9.67%
15,C/C=C/c1ccc(OCC(O)CNCC(c2ccc(OC)cc2)N(C)C)c(OC)c1 (stereo unspecified),inactive: -9.19%
16,Cc1ccccc1OCC(=O)NNC(=S)NC(=O)c1ccccc1[N+](=O)[O-],inactive: 8.92%
17,c1ccc(-c2cn3nc4c(nc3n2)CCCC4)cc1,inconclusive: -38.2% [inhibitor]
18,Cc1[nH]c2ccccc2c1/C=N/NC(=O)Nc1ccccc1,inconclusive: -32.9% [inhibitor]
19,Cc1sc2ncnc(SCC(=O)NNC(=O)c3ccco3)c2c1C,inconclusive: -39.6% [inhibitor]
20,O=c1c2ccccc2nc2n1CCc1c-2[nH]c2ccccc12,inconclusive: -32.9% [inhibitor]
21,COc1ccc(-n2cc(CN[C@H]3CCCCNC3=O)c(-c3cccc(F)c3)n2)cc1,inactive: -9.49%
22,Cc1cccc(C)c1Nc1nnc(SCc2cn3cccc(C)c3n2)s1,inconclusive: -30.5% [inhibitor]
23,O=C(CSc1nc2cc(Cl)ccc2o1)Nc1ccc(N2CCOCC2)cc1,inactive: -10.4%
24,CCc1cccc(NC(=O)c2cccc3c2C(=O)N(C2CCCCC2)C3)c1,inconclusive: -35.8% [inhibitor]
25,CCc1cc2c(NC3CCCC3)ncnc2s1,inconclusive: -35.2% [inhibitor]
26,Cc1cc(-n2c(C)cc(C(=S)N3CCOCC3)c2C)ccc1Br,inconclusive: -32.3% [inhibitor]

row,Structure (SMILES),activity change
1,O=C(NNC(=O)c1ccccc1[N+](=O)[O-])c1cccs1,inconclusive: -33% [inhibitor]
2,O=C(Cc1c(O)c2ccccc2[nH]c1=O)NC1CCCCCCC1,inactive: 20.9%
3,COc1ccc(C(CNC(=O)c2oc3ccc(OC)cc3c2C)N2CCCC2)cc1 (stereo unspecified),inactive: -9.16%
4,CC(C)(C)c1cc(/C=N/NC(=O)C[n+]2ccccc2)cc(C(C)(C)C)c1O,inactive: 10.6%
5,O=C(Nc1nc2ccccc2[nH]1)c1ccccc1F,active: -89.4%
6,CC1=NN(C(=O)c2cccc(Cn3nc(C)c([N+](=O)[O-])c3C)c2)C(O)(C(F)(F)F)C1 (stereo unspecified),inactive: 1.03%
7,Cc1ccc(-c2nc3c(c(=O)[nH]c(=O)n3Cc3ccccc3)n2C)o1,inconclusive: -31.2% [inhibitor]
8,COc1cc2cc(C)c(SCC(=O)N3CCN(C(=O)c4ccco4)CC3)nc2cc1OC,inconclusive: -30.8% [inhibitor]
9,Cc1c(C(=O)O)sc2nc(/C=C/c3ccccc3OC(F)F)[nH]c(=O)c12,inactive: -10.1%
10,Cc1ccc2nc(-c3ccc(NC(=O)C4CCCO4)cc3)[nH]c2c1 (stereo unspecified),inconclusive: -31% [inhibitor]
11,Cc1cc(C(=O)NNS(=O)(=O)c2cccc(Cl)c2)nn1C(C)(C)C,inconclusive: -30% [inhibitor]
12,COc1ccccc1NC(=O)c1ccc(NC(=O)c2cc3c(s2)CCC3)cc1,inconclusive: -36% [inhibitor]
13,CCC1=C(OC(=O)N(CC)CC)N2C(=O)OC(=NCC(=O)OC)[C@]2(C)[C@H]2C1=CC[C@H]1C(=O)N(CC)C(=O)[C@H]12,inconclusive: -46.5% [inhibitor]
14,NC(=O)C1CCN(CC(O)CSc2ccccc2)CC1 (stereo unspecified),inconclusive: -36.8% [inhibitor]
15,O=C(C[C@H]1C/C=C\CC[C@H](Cc2ccc(F)cc2)C(=O)OC[C@H]2CCCN2C1=O)N[C@H](CO)Cc1ccccc1,inactive: -3.19%
16,Cc1ccc(-c2cn(-c3ccccc3)c(SCC(=O)NC3CCS(=O)(=O)C3)n2)cc1C (stereo unspecified),inactive: 5.77%
17,CSc1nncn1/N=C/c1cc(Cl)ccc1F,inactive: -0.155%
18,Cc1ccc2sc(NC(=O)C3CC3)nc2c1C,inconclusive: -31.6% [inhibitor]
19,COc1ccc(S(=O)(=O)N2CCSC2c2ccccc2)cc1 (stereo unspecified),inactive: -3.65%
20,CC(=O)COc1cc(C)cc2oc(=O)cc(-c3ccccc3)c12,inconclusive: -37.7% [inhibitor]
21,Cc1ccc(CN=c2c([N+](=O)[O-])nn(-c3cccc(Cl)c3)n2O)cc1,inconclusive: -45.8% [inhibitor]
22,C=CCn1c(C)cc(C2=NNC(=NCC)SC2)c1C,inconclusive: -79.4% [inhibitor]
23,Cc1cccc(C(=O)OCC(=O)N(C)c2ccccc2)c1C,inconclusive: -31.8% [inhibitor]
24,CCc1nc(NCCO)c(C#N)c2c1CCCC2,inconclusive: -36.9% [inhibitor]
25,Cc1ccc(C(=O)N(Cc2cccs2)C2CCS(=O)(=O)C2)cc1 (stereo unspecified),inconclusive: -37% [inhibitor]
